Laboratory results taken from patent US5807535A, “Metal complexes of hydroxyaryl containing aminocarboxylic acid chelating agents” (Australian Nuclear Science & Technology Organisation, priority 1992, dated 1998).
This continues a long series; more values of the same kind are listed elsewhere.

Experiment: Biodistribution of 67Ga complexes in mice
Assay type: in vivo, balb/c mice
Protocol: To ligand (50 μL, 10 mg/mL, 0.2 M NaOAc, […]) was added ^67 Ga citrate (18.5 MBq) and the resultant mixture diluted to 1 mL (0.2 M NaOAc, pH 7). The pH was adjusted to 12 with 1 M NaOH (20 μL) and heated at 40° C. for 40 min. The final volume was adjusted (to 5 mL) with saline and sterilised by filtering through a 0.22 μm filter.
Each animal was injected via tail vein with ^67 Ga complex (100 μL, ~3.7×10^5 Bq). Animals were sacrificed at various time intervals (5 animals per time point/6 time points). Data are illustrated in FIG. 26-30 and in Tables 13-17.
Each ^67 Ga-ligand complex has been evaluated in balb/c mice. […] (see FIG. 26-30).

SMILES: CC(C)(C)c1ccc(O)c(NC(=O)CN(CCN(CC(=O)O)CC(=O)Nc2cc(C(C)(C)C)ccc2O)CC(=O)O)c1 [Compound 4]
- biodistribution bladder (1 min): 0.14 % ID
- biodistribution blood (1 min): 9.95 % ID
- biodistribution caecum (1 min): 0.19 % ID
- biodistribution colon (1 min): 0.32 % ID
- biodistribution duodenum (1 min): 0.09 % ID
- biodistribution heart (1 min): 0.27 % ID
- biodistribution ileum (1 min): 0.20 % ID
- biodistribution jejunum (1 min): 1.16 % ID
- biodistribution lungs (1 min): 0.64 % ID
- biodistribution ovaries (1 min): 0.13 % ID
- biodistribution pancreas (1 min): 0.17 % ID
- biodistribution salivary gl (1 min): 0.12 % ID
- biodistribution stomach GL (1 min): 0.14 % ID
- biodistribution stomach SQ (1 min): 0.06 % ID
- biodistribution tail (1 min): 0.00 % ID
- biodistribution bladder (3 min): 0.28 % ID
- biodistribution blood (3 min): 3.06 % ID
- biodistribution caecum (3 min): 0.15 % ID
- biodistribution colon (3 min): 0.11 % ID
- biodistribution duodenum (3 min): 0.25 % ID
- biodistribution heart (3 min): 0.08 % ID
- biodistribution ileum (3 min): 0.080 % ID
- biodistribution jejunum (3 min): 1.17 % ID
- biodistribution lungs (3 min): 0.26 % ID
- biodistribution ovaries (3 min): 0.12 % ID
- biodistribution pancreas (3 min): 0.05 % ID
- biodistribution salivary gl (3 min): 0.06 % ID
- biodistribution stomach GL (3 min): 0.06 % ID
- biodistribution stomach SQ (3 min): 0.03 % ID
- biodistribution tail (3 min): 0.88 % ID
- biodistribution bladder (5 min): 0.14 % ID
- biodistribution blood (5 min): 2.28 % ID
- biodistribution caecum (5 min): 0.06 % ID
- biodistribution colon (5 min): 0.14 % ID
- biodistribution duodenum (5 min): 0.44 % ID
- biodistribution heart (5 min): 0.05 % ID
- biodistribution ileum (5 min): 0.05 % ID
- biodistribution jejunum (5 min): 1.19 % ID
- biodistribution lungs (5 min): 0.18 % ID
- biodistribution ovaries (5 min): 0.10 % ID
- biodistribution pancreas (5 min): 0.10 % ID
- biodistribution salivary gl (5 min): 0.03 % ID
- biodistribution stomach GL (5 min): 0.47 % ID
- biodistribution stomach SQ (5 min): 0.07 % ID
- biodistribution tail (5 min): 0.73 % ID
- biodistribution bladder (10 min): 0.41 % ID
- biodistribution blood (10 min): 0.27 % ID
- biodistribution caecum (10 min): 0.09 % ID
- biodistribution colon (10 min): 0.06 % ID
- biodistribution duodenum (10 min): 0.36 % ID
- biodistribution heart (10 min): 0.01 % ID
- biodistribution ileum (10 min): 0.06 % ID
- biodistribution jejunum (10 min): 5.43 % ID
- biodistribution lungs (10 min): 0.03 % ID
- biodistribution ovaries (10 min): 0.02 % ID
- biodistribution pancreas (10 min): 0.03 % ID
- biodistribution salivary gl (10 min): 0.01 % ID
- biodistribution stomach GL (10 min): 0.19 % ID
- biodistribution stomach SQ (10 min): 0.04 % ID
- biodistribution tail (10 min): 0.57 % ID
- biodistribution bladder (30 min): 0.00 % ID
- biodistribution blood (30 min): 0.13 % ID
- biodistribution caecum (30 min): 0.49 % ID
- biodistribution colon (30 min): 0.28 % ID
- biodistribution duodenum (30 min): 0.53 % ID
- biodistribution heart (30 min): 0.00 % ID
- biodistribution ileum (30 min): 01.52 % ID
- biodistribution jejunum (30 min): 0.61 % ID
- biodistribution lungs (30 min): 0.01 % ID
- biodistribution ovaries (30 min): 0.00 % ID
- biodistribution pancreas (30 min): 0.00 % ID
- biodistribution salivary gl (30 min): 0.00 % ID
- biodistribution stomach GL (30 min): 0.02 % ID
- biodistribution stomach SQ (30 min): 0.01 % ID
- biodistribution tail (30 min): 0.14 % ID
- biodistribution bladder (120 min): 0.00 % ID
- biodistribution blood (120 min): 0.10 % ID
- biodistribution bone (120 min): 0.15 % ID
- biodistribution caecum (120 min): 1.19 % ID
- biodistribution colon (120 min): 0.56 % ID
- biodistribution duodenum (120 min): 0.04 % ID
- biodistribution heart (120 min): 0.00 % ID
- biodistribution ileum (120 min): 0.12 % ID
- biodistribution jejunum (120 min): 0.20 % ID
- biodistribution lungs (120 min): 0.01 % ID
- biodistribution ovaries (120 min): 0.00 % ID
- biodistribution pancreas (120 min): 0.01 % ID
- biodistribution salivary gl (120 min): 0.00 % ID
- biodistribution stomach GL (120 min): 0.02 % ID
- biodistribution stomach SQ (120 min): 0.21 % ID
- biodistribution tail (120 min): 0.11 % ID
